# In PMC4336329 (PLoS ONE, 2015):
# The campaign covered roughly 310,000 compounds. About 2,200 (0.71%) showed an effect of 50% or more. Effects have a minus sign here. The list shows a part of the results.
# Target: human ether-à-go-go-related gene (hERG) potassium channel (human, UniProt Q12809)
# Assay: primary screen, population patch clamp on CHO cells stably expressing hERG
# Chain of human ether-à-go-go-related gene (hERG) potassium channel (Q12809 whole entry, looked up): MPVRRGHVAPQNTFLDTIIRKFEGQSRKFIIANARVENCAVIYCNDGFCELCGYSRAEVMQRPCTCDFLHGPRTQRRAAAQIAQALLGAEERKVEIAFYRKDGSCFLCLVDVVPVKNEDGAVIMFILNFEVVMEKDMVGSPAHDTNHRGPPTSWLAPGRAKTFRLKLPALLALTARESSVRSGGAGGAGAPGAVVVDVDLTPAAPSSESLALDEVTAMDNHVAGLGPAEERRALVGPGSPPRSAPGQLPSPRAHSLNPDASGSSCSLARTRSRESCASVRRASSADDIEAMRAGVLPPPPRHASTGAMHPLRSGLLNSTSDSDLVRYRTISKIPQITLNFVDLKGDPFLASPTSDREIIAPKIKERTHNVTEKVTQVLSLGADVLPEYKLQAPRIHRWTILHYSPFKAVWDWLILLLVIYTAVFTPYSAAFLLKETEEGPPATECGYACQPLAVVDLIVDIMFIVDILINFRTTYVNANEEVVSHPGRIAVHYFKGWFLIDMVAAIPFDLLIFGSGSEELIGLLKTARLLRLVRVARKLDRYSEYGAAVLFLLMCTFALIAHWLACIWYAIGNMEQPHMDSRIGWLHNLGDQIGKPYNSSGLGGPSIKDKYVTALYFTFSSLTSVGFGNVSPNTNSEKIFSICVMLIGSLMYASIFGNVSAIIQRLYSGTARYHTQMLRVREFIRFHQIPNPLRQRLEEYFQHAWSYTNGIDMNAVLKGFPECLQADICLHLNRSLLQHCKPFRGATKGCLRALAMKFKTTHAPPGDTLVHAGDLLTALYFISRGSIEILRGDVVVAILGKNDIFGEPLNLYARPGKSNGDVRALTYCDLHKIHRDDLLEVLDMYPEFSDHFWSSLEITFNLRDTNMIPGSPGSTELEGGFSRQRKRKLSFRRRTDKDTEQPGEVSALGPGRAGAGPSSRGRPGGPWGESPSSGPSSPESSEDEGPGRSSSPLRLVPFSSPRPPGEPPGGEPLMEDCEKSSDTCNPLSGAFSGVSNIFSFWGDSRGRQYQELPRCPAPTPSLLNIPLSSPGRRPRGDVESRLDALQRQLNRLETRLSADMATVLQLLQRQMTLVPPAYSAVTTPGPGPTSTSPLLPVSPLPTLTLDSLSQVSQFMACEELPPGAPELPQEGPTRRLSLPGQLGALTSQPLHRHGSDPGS
row,SMILES,"hERG current change (%, negative = inhibition) at 1uM [%]"
1,CCOC(=O)C1CCCN(C(=O)C2CCN(C(=O)Nc3ccccc3)CC2)C1 (centres unmarked),6.75
2,COc1cccc(CC(=O)Nc2nc(-c3cc(OC)ccc3OC)cs2)c1,10.8
3,CCC(C)Cn1c(S(=O)(=O)O)nc2ccccc21 (centres unmarked),13.7
4,O=C1Nc2ccc([N+](=O)[O-])cc2OC1CCN1CCN(c2ccccc2)CC1 (centres unmarked),1.2
5,CCOC(=O)/C(C#N)=C/NC(=O)NC(C)(C)C,10.7
6,CC(C)(C)c1cn(-c2ccc(Cl)cc2)c(=S)[nH]1,-0.875
7,C=CCSc1nc2sc3c(c2c(=O)n1CC)CCc1ccccc1-3,8.48
8,CCCNC(=O)C1CCN(c2nc(C)cc(C)n2)CC1,4.08
9,COc1ccc(-c2cc(C(F)(F)F)nc(NCc3ccco3)n2)cc1OC,14.7
10,CN(C)S(=O)(=O)c1ccc(N2CCCC2)c(C(=O)OCC(=O)NC2(C#N)CCCCC2)c1,11.6
11,O=C1c2cccnc2C(=O)N1Cc1ccc(F)cc1,-3.34
12,CC(=NCCN1CCCCC1)c1c(O)n(-c2ccccc2)c(=O)[nH]c1=O,16.1
13,CC1=CC(C)(C)N(C(=O)CCl)c2ccccc21,-5.97
14,Cc1cccc(C)c1N1CCN(C(=O)Nc2ccc3c(c2)OCCO3)CC1,-10.1
15,O=C(NC(=S)N1CCCC(C(F)(F)F)C1)c1ccc(F)cc1 (centres unmarked),13
16,CCCCC(=O)Nc1ccc(C(=O)N2CCC(C(=O)OCC)CC2)cc1,13.6
17,CC(=O)c1ccc(NC(=O)CCc2ccc(C)o2)cc1,12.2
18,Cn1c(N)c(C(=O)COC(=O)c2ccc(Br)o2)c(=O)n(C)c1=O,4.94
19,Cc1cc[n+](CCc2ccccc2)cc1C.[Br-],17.1
20,CCOc1ccccc1NC(=O)Nc1ccon1,9.96
21,COc1ccc(CNC(=O)CNC(C)c2ccc(F)cc2)cc1.O=C(O)C(=O)O (centres unmarked),14.5
22,N/C(=N\OC(=O)COc1ccc(Cl)cc1)c1cccnc1,9.42
23,CSc1nsc(/C=C/Nc2ccc(C(=O)O)cc2)c1C#N,9.46

row,SMILES,"hERG current change (%, negative = inhibition) at 1uM [%]"
1,COc1cc2c(c(OC)c1)C(c1ccncc1)CC(=O)N2 (centres unmarked),5.69
2,CCC(=O)N(NC1=NS(=O)(=O)c2ccccc21)S(=O)(=O)c1ccc(C)cc1,6.93
3,CC(C)CCN1CCNC(=O)C1CC(=O)NCCCN1CCOCC1 (centres unmarked),14.7
4,CCC1(CC)C(=O)N(Cc2ccccc2)C(=O)N(Cc2ccccc2)C1=O,-0.85
5,Cc1cccc(-n2c(Cc3cc(=O)[nH]c(=O)[nH]3)nnc2SC(C)C)c1,8.6
6,CN(C)c1ccc(CN(C(=O)/C=C/c2ccccc2Cl)C2CCS(=O)(=O)C2)cc1 (centres unmarked),13.1
7,Cc1ccc(C(=O)Nc2cccc(-c3nc4ncccc4o3)c2)cc1,12
8,COc1cccc2cc(-c3cc(=O)oc4ccc(O)cc34)oc12,9.32
9,O=C(O)c1nc(-c2ccccc2)n(-c2cccc(C(F)(F)F)c2)n1,5.09
10,Cc1cccc(C)c1NC(=S)NC(=O)c1ccccc1F,8.33
11,Cc1ccc(C2=NC(C(F)(F)F)(C(F)(F)F)c3c(n(-c4ccc(F)cc4)c(=O)[nH]c3=O)N2)cc1,5.31
12,COC(=O)C(Cc1ccc(OC(=O)c2ccc(C)cc2)cc1)N1Cc2ccccc2C1=O (centres unmarked),-4.45
13,COC(=O)Cc1nnc(Nc2cccc(C)c2)c2ccccc12,6.41
14,CN1CCN(NC(=O)Nc2ccc(Br)cc2)CC1,8.8
15,O=C(CCNC(=O)c1ccc(Br)cc1)NCc1ccncc1,1.07
16,Nc1ncn(C(=O)c2ccco2)n1,18.6
17,CCC(C)(C)C1CCC(=NNC(=S)Nc2ccccc2)CC1 (centres unmarked),5.72
18,Cc1ccc(NC(=O)c2oc3ccccc3c2C)c([N+](=O)[O-])c1,12.6
19,CCc1ccc(NC(=O)Cn2cnc3sc(C)c(S(=O)(=O)N4CCOCC4)c3c2=O)cc1,0.377
20,Cc1noc(C(=O)Nc2cccnc2)c1Cl,14.8
21,O=C(Cc1noc2ccccc12)Nc1ccc(Cl)cc1,10.4
22,CC1CCCC(NC(=O)c2cccs2)C1C (centres unmarked),14.6
23,COc1ccccc1CNC(=O)Cc1ccc(OC)c(OC)c1,15.3

row,SMILES,"hERG current change (%, negative = inhibition) at 1uM [%]"
1,O=C(NCCO)C(=O)NCC1OCCCN1S(=O)(=O)c1cccs1 (centres unmarked),3.04
2,O=C(COC(=O)c1ccccc1C(=O)c1ccc(Cl)cc1)NC(c1ccccc1)c1ccccc1,8.91
3,CCNC(=S)N/N=C(\C)c1cccc([N+](=O)[O-])c1,2.06
4,Cc1nn(CC(=O)NCCc2ccccc2)c(C)c1[N+](=O)[O-],5.05
5,O=C(CNC(=S)N(Cc1ccc(F)cc1)C1CCCCC1)NC1CC1,-6.38
6,N#C/C(=C\c1c[nH]c2ccccc12)C(N)=O,10.7
7,CCCSc1nc2cc(OC)c(OC)cc2c(=N)n1CCCN1CCOCC1,-31.7
8,O=C(COC(=O)C(Cc1ccccc1)NC(=O)c1cccs1)NCc1ccccc1 (centres unmarked),3.74
9,COc1ccc(CNC(=O)Nc2ccccc2)cc1,-1.46
10,O=C(OCc1ccc([N+](=O)[O-])cc1Cl)c1cnccn1,10.1
11,Cc1cccc(-c2nc(C#N)c(NC3CCCCC3)o2)c1,10.4
12,CCC(CC)C(=O)N(c1ccc(F)cc1)C1C=CS(=O)(=O)C1 (centres unmarked),6.64
13,O=C(Nc1scc(-c2ccccc2)c1C(=O)O)c1ccccc1Cl,3.39
14,Cc1nnc(SCC(=O)N2c3ccccc3Sc3ccccc32)n1N,12.5
15,Cc1cccc(OCc2nc(C#N)c(NCCN(C)C)o2)c1,-7.23
16,Nc1ccccc1SC/C=C/CSc1ccccc1N,14.9
17,CCCn1c(O)c(N=NC(=O)CNC(=O)c2cccnc2)c2ccccc21,7.77
18,COCCN(CC1CCCN(C2Cc3ccccc3C2)C1)C(=O)CCC(C)=O (centres unmarked),7.77
19,COc1ccc(-c2nnc(SCC(=O)N3CCOCC3)o2)cc1OC,1.41
20,CCC(C)NC(=O)C1CCN(S(=O)(=O)c2ccc3[nH]c(=O)ccc3c2)CC1 (centres unmarked),7.77
21,Cc1ccc(S(=O)(=O)Nc2c(C)n(C)n(-c3ccccc3)c2=O)cc1C(=O)NCc1ccccn1,16.7
22,CC(C)=CC[N+]1(C)CCCCC1.[Br-],18.7
23,CCC(C)OC(=O)c1[nH]c2c(c1C)C(=O)CC(c1ccc(N(C)C)cc1)C2 (centres unmarked),5.6

row,SMILES,"hERG current change (%, negative = inhibition) at 1uM [%]"
1,CN(c1ccccc1)c1nc(N)c([N+](=O)[O-])c(N2CCCCC2)n1,7.57
2,Cc1n[nH]c(C)c1Sc1ccccc1[N+](=O)[O-],2.44
3,O=C(NCc1ccc(F)cc1)C1CCCN(S(=O)(=O)c2ccc(-n3cnnn3)cc2)C1 (centres unmarked),9.68
4,COc1ccc(/C=C/C(=O)NC2CCS(=O)(=O)C2)cc1 (centres unmarked),10.3
5,COCCNC(=O)C(OC(=O)CC1Sc2ccccc2NC1=O)c1ccccc1 (centres unmarked),6.18
6,CCCNC(=O)Nc1cccc(C(=O)OC)c1,0.0389
7,O=C(CN1C(=O)CCC1=O)Nc1ccc(Cc2ccc(NC(=O)CN3C(=O)CCC3=O)cc2)cc1,18.4
8,CCN(CC)CCCNC(=O)CSc1nc2c(c(C(F)(F)F)n1)CCc1ccccc1-2,-23.1
9,COCCn1c(SCC(=O)Nc2ccccc2F)nc2c(c1=O)SCC2,12.3
10,COc1ccc(C(=O)Nc2sc3c(c2C#N)CCN(C(C)=O)C3)cc1,17.6
11,O=C(CCS(=O)(=O)c1ccc(Br)cc1)NCCC1=CCCCC1,7.69
12,Cc1ccc(Cl)cc1N1CCN(CC(=O)NC2CCCc3ccccc32)CC1 (centres unmarked),11.9
13,CCOC(=O)C1C(=O)CC(C)(O)C(C(=O)OCC)C1c1ccccc1 (centres unmarked),3.77
14,O=c1cc(-c2ccccc2)nc(Sc2ccc([N+](=O)[O-])cc2[N+](=O)[O-])[nH]1,18.1
15,O=C(NCc1cccc(Cl)c1)c1ccc2c(c1)OCO2,6.15
16,Cc1ccc(NC(=O)CN(C)S(=O)(=O)c2cccs2)cc1F,12
17,CN(Cc1nc2ccccc2c(=O)[nH]1)C(=O)c1cccc(S(=O)(=O)N2CCCCCC2)c1,4.23
18,CC1=C(C(=O)NCc2ccc3c(c2)OCO3)C2(CCC(C)CC2)OC1=O (centres unmarked),-3.63
19,CCOC(=O)N(CC)OC(=O)Nc1ccc(Cl)cc1,-1.05
20,COc1ccc(N2CCN(C(=O)c3ccc(Cl)c(S(=O)(=O)N4CCCC4)c3)CC2)cc1,6.82
21,COc1ccc(C2SCC(=O)N2c2ccc(F)cc2)cc1 (centres unmarked),14
22,COCCCNC(=O)c1ccc2c(c1)ncn2-c1ccccc1OC,5.26
23,CCOC(=O)C1=C(C)N(CCCCCC(=O)O)C(=O)NC1c1ccccc1Cl (centres unmarked),7.73
